# Measurements reported in the BET-seq Pho4 binding data (Le et al. 2018).
# The list shows a part of the results. These are noisy estimates, calculated here from bound and input reads.
# Biological target: T1, Pho4 (S. cerevisiae) (UniProt P07270)
# T1 sequence: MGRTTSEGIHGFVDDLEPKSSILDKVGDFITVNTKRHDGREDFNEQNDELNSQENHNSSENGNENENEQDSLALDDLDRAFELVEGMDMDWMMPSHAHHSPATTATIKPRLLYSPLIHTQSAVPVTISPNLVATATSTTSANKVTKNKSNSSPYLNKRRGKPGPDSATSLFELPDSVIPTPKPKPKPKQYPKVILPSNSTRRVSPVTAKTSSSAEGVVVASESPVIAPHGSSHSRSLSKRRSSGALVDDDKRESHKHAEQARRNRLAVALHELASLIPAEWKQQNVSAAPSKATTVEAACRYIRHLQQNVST
# Experiment: relative binding free energy (BET-seq); higher = weaker binding
# Details: reference: library average
row,Sequence,relative binding free energy [kcal/mol]
1,TGTGGCACGTGGATGC,-0.05
2,GATTTCACGTGTTTCT,0.29
3,GTATACACGTGTTTAT,-0.02
4,GGGTACACGTGGTCAG,0.01
5,GTTGCCACGTGATGTG,0.01
6,TTCCTCACGTGTGGTG,0.4
7,GTTTACACGTGGGTAA,0.06
8,TAATGCACGTGGGGGC,-0.26
9,AGGTCCACGTGTGTAG,0.11
10,GGCGGCACGTGAGACG,0.23
11,TTTGGCACGTGCGTGC,0.02
12,CGTGTCACGTGGGTTC,-0.04
13,TTGTCCACGTGCTGGG,-0.02
14,TTACACACGTGTGTTG,0.04
15,TGAGACACGTGGCTGT,-0.06
16,CATAGCACGTGTGGAG,0.08
17,GTGAGCACGTGTGCTA,-0.09
18,ATTGCCACGTGCGTTT,-0.18
19,GGTGTCACGTGTGTTT,0.28
20,GTTATCACGTGTGTAG,0.14
21,AAGTGCACGTGTAGAA,0.01
22,TGGTTCACGTGTCTAG,0.31
23,TTGTACACGTGGTGTT,0.1

row,Sequence,relative binding free energy [kcal/mol]
1,GGGCTCACGTGGTAGT,0.33
2,TTGATCACGTGAGATA,0.3
3,GGGGCCACGTGGTGTA,-0.21
4,GGTAACACGTGGGCGA,-0.08
5,TTATCCACGTGATGTT,0.09
6,TGCAGCACGTGTGGTA,-0.18
7,GGCGTCACGTGGTTTG,0.18
8,GGTGTCACGTGCTCTT,0.1
9,TTTGACACGTGCTATG,-0.17
10,CTTGCCACGTGTGGGC,0.04
11,GTGGCCACGTGTTGGA,0.04
12,GTTTTCACGTGAAGGT,0.48
13,GTGGGCACGTGTATAA,0.07
14,TTTTACACGTGAAGTG,0.4
15,GTCTGCACGTGTAATG,0.16
16,TGTGCCACGTGTGGGC,-0.09
17,CGTGACACGTGTTGGT,-0.03
18,GATTTCACGTGGCTAT,0.44
19,GGATGCACGTGGTATG,-0.07
20,GGGATCACGTGTAGAG,0.25
21,TGCGACACGTGTTAGG,0.08
22,TAGGGCACGTGTTAGT,-0.07
23,ACGGGCACGTGAAGTG,0.18

row,Sequence,relative binding free energy [kcal/mol]
1,GGGGACACGTGGCATT,-0.12
2,TGAGACACGTGTATAG,-0.05
3,ATGTGCACGTGAGGTA,0.2
4,TTTAACACGTGGGTTC,-0.12
5,GTGTGCACGTGCTATG,-0.13
6,TTTGGCACGTGAACTT,-0.01
7,GGCTTCACGTGGGTAC,0.34
8,CTAGTCACGTGGTGGT,0
9,TTAGGCACGTGTAATT,0.02
10,TAGGTCACGTGGTGAG,0.11
11,TTTTTCACGTGTCTTA,0.32
12,TCATGCACGTGTAAGT,-0.04
13,CGGGGCACGTGGGAAG,-0.22
14,CTAGACACGTGGGTGG,-0.23
15,TGGTACACGTGTTGTG,0.09
16,GGGTTCACGTGGAATA,0.33
17,GGCTTCACGTGTATGT,0.29
18,TTTTGCACGTGTAGTT,0.14
19,CTATGCACGTGTCGGT,-0.04
20,GGGCGCACGTGAGAGG,0.09
21,GGTTGCACGTGTGGTG,0.06
22,GCAGACACGTGTTGTT,0.04
23,GTTATCACGTGTATGA,0.12

row,Sequence,relative binding free energy [kcal/mol]
1,TTCTTCACGTGGAGGA,0.29
2,TGGATCACGTGAGGGT,0.28
3,CGGTCCACGTGGGGGC,-0.15
4,TGTGTCACGTGAAGAC,0.24
5,GATATCACGTGGTTTA,0.18
6,ACTGTCACGTGTTGTA,0.06
7,TAATTCACGTGAGGTA,0.35
8,GGTTCCACGTGAGTTA,0.36
9,TGACGCACGTGAGTTT,0.14
10,GCCAGCACGTGGGTGG,-0.13
11,AGCTACACGTGGGTTT,-0.02
12,GTGTGCACGTGGGTGA,-0.06
13,TCTTACACGTGTAGGT,0.03
14,ATTGTCACGTGATTTG,0.17
15,TTATTCACGTGGGTTT,0.2
16,ATTGACACGTGGAGTA,-0.19
17,ATGTGCACGTGACAGG,-0.02
18,TGGCACACGTGTTGCG,0.01
19,GTGTTCACGTGGAGAT,0.26
20,AATTTCACGTGTAGTG,0.24
21,TGGGGCACGTGTGCAG,-0.11
22,AGGGTCACGTGTGTAG,0.11
23,TTGATCACGTGCAGTT,0.2

row,Sequence,relative binding free energy [kcal/mol]
1,ATATACACGTGTGAGT,-0.03
2,GTGTGCACGTGCGGTA,-0.16
3,GGTGCCACGTGCTGGG,-0.09
4,AACTTCACGTGTGGGT,0.29
5,TTTCGCACGTGGTTGC,-0.16
6,TCTTTCACGTGTTGTC,0.2
7,TCTTTCACGTGTATGA,0.21
8,ATTATCACGTGAGTAT,0.34
9,TTGTACACGTGTAGGT,0.22
10,TGCGCCACGTGAAGTT,0.26
11,GCGTACACGTGGTTTA,0.14
12,TTGATCACGTGATCGG,0.17
13,CAGGTCACGTGTTAAA,0.23
14,GGTTGCACGTGGGAGA,0.05
15,AATTTCACGTGACGGT,0.31
16,TAGGGCACGTGTTTTC,-0.02
17,TGGTCCACGTGTGGGT,0.01
18,CGGATCACGTGTGAGT,0.32
19,TTTAGCACGTGTAGTC,0.03
20,TCGGACACGTGTTTAG,0.01
21,GTTGGCACGTGGTAGT,0.01
22,TCAGTCACGTGTGGAT,0.17
23,GTTTGCACGTGAGGCT,0.29
